Legend:
[1] = target: T1, Sigma non-opioid intracellular receptor 1 (Homo sapiens, UniProt Q99720); assay: Displacement of [3H] Pentazocine from sigma 1 receptor in HEK293 cell membrane; type: cell membranes
[2] = target: Sigma intracellular receptor 2 (Homo sapiens, UniProt Q5BJF2); assay: Displacement of [3H]DTG from sigma-2 receptor in HEK293 cell membrane assessed as inhibition constant; type: cell membranes
Method in brief: (§1)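 Competitive radioligand binding in membranes harvested from HEK293 cells, with one radioligand per target: [3H]N-methylspiperone for D2, D3 and D4; [3H]SCH23390 for D1 and D5; [3H]pentazocine for σ1; [3H]DTG for σ2. Ki derived from inhibition of binding, each run in triplicate.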

[3] = Plasma protein binding in mouse assessed as unbound fraction; type: ADME
Method in brief: (§2)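 Plasma protein binding by equilibrium dialysis in human or mouse plasma, reported as fraction unbound (fu).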

[4] = Plasma protein binding in human assessed as unbound fraction; type: ADME, cell-free; method in brief: as §2
D(1A) dopamine receptor = D(1A) dopamine receptor (Homo sapiens, UniProt P21728); assay: Displacement of [3H]SCH23390 from D1 receptor in HEK293 cell membrane assessed as inhibition constant; type: cell membranes; method in brief: as §1
D(1B) dopamine receptor = D(1B) dopamine receptor (Homo sapiens, UniProt P21918); assay: Displacement of [3H]SCH23390 from D5 receptor in HEK293 cell membrane assessed as inhibition constant; type: cell membranes; method in brief: as §1
[5] = target: T2, D(4) dopamine receptor (Homo sapiens) (UniProt P21917); assay: Displacement of [3H]N-methylspiperone from D4 receptor in HEK293 cell membrane assessed as inhibition constant at 10 uM relative to control; type: cell membranes; set-up: scale not given: the % may be the effect or the level left
T2 sequence (whole entry): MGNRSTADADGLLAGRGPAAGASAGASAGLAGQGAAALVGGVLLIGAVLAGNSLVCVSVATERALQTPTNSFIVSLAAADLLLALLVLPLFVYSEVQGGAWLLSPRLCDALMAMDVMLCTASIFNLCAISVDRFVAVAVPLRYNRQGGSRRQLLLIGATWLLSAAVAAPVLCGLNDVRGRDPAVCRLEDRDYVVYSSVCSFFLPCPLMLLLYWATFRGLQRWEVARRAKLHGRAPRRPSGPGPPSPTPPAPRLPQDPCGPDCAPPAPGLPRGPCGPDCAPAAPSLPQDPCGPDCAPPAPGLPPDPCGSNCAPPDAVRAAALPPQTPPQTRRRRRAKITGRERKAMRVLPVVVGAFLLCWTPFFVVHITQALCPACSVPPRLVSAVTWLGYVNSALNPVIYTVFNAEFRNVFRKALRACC

D(4) dopamine receptor = target: T3, D(4) dopamine receptor (Homo sapiens, UniProt P21917); assay: Displacement of [3H]N-methylspiperone from D4 receptor in HEK293 cell membrane; type: cell membranes
T3 sequence (P21917 whole entry): T2 sequence (whole entry)

[6] = target: T1, Sigma non-opioid intracellular receptor 1; assay: Displacement of [3H] Pentazocine from sigma 1 receptor in HEK293 cell membrane assessed as inhibition constant relative to control; type: cell membranes; set-up: scale not given: the % may be the effect or the level left; method in brief: as §1
D(3) dopamine receptor = D(3) dopamine receptor (Homo sapiens, UniProt P35462); assay: Displacement of [3H]N-methylspiperone from D3 receptor in HEK293 cell membrane assessed as inhibition constant; type: cell membranes; method in brief: as §1
Chain of UniProt P35462 (P35462 whole entry): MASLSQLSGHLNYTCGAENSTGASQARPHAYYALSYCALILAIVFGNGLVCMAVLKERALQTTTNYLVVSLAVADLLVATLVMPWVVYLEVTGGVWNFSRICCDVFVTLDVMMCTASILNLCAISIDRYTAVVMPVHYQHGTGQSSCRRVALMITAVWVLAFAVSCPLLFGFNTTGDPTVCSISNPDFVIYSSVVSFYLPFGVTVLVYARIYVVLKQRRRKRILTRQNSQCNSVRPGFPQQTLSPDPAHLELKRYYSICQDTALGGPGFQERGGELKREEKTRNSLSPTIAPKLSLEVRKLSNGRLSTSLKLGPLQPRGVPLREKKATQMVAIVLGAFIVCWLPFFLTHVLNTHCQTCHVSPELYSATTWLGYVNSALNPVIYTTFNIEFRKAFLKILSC

Chain of UniProt Q5BJF2 (Q5BJF2 whole entry): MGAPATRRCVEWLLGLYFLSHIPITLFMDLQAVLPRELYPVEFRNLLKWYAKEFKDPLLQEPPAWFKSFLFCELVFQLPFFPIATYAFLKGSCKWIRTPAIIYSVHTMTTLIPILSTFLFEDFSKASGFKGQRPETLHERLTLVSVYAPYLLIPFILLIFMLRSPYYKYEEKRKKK
Chain of UniProt P21728 (P21728 whole entry): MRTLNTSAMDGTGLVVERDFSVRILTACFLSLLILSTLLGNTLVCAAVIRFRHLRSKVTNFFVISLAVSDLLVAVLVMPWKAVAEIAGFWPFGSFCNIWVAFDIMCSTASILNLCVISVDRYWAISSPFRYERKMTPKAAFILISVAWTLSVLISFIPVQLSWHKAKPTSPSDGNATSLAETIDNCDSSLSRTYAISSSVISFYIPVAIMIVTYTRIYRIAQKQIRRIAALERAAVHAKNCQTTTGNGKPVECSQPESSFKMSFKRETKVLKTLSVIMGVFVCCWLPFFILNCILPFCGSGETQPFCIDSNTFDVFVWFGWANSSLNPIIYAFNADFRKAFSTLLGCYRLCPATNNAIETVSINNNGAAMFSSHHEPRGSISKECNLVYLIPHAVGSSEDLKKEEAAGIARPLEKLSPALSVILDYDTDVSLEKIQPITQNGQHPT
T1 sequence (Q99720 whole entry): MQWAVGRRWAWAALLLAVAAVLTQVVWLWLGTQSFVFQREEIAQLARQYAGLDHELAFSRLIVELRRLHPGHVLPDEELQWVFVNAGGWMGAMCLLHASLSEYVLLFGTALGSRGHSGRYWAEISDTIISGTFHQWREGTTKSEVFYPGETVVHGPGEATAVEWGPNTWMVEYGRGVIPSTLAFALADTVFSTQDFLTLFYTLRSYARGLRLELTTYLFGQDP
Chain of UniProt P21918 (P21918 whole entry): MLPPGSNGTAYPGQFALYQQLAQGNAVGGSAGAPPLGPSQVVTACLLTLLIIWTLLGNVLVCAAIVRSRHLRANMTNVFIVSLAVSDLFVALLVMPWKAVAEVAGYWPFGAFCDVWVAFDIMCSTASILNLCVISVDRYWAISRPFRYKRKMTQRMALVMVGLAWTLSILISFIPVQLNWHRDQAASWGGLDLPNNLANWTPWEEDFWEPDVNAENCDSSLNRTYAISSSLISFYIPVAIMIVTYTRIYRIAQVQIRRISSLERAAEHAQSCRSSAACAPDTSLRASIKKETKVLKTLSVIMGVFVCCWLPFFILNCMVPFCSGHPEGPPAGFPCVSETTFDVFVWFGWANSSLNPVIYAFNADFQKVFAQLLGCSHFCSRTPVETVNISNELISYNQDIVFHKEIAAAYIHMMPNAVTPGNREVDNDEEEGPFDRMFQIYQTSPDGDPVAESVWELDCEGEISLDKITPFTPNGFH

Row | SMILES | Ki [1] [nM] | Ki [2] [nM] | Ki (D(1A) dopamine receptor) [nM] | also measured
1 | Fc1ccc(COC2CCN(Cc3cn4ccccc4n3)CC2)cc1F | 5.2 |  |  | 
2 | COc1ccc(CN2CCC[C@H](OCc3ccc(F)c(C)c3)C2)cc1F | 2.4 | 123 | > 10000 | Fu [3]: 1.2%; Fu [4]: 0.6%
3 | Cc1c(Cl)cccc1NC(=O)CN1CCC(OCc2ccc(F)c(F)c2)CC1 | 131 |  | > 10000 | Ki (D(1B) dopamine receptor): > 10000 nM
4 | Cn1ncc2cc(CN3CCC(OCc4ccc(Cl)c(F)c4)CC3)ccc21 | 1.3 |  |  | 
5 | Cc1cc(NC(=O)CN2CCC(OCc3ccc(F)c(F)c3)CC2)ccc1F | 81 | 123 | > 10000 | Fu [3]: Not Determined(Unstable)
6 | Cc1nc(CN2CCC(OCc3ccc(F)c(F)c3)CC2)c2ccccn12 | 40 |  |  | 
7 | Cc1ccc(CO[C@H]2CCCN(Cc3ccc(C#N)cc3)C2)cc1 | 14 | 248 | > 10000 | Fu [3]: 2.4%; Fu [4]: 1.2%
8 | Cc1cc(NC(=O)CN2CCC3(CCCN3Cc3ccc(F)c(F)c3)CC2)ccc1F | 27 |  |  | Activity [5]: 25%
9 | Fc1cc(COC2CCN(Cc3ncc4ccccn34)CC2)ccc1Cl | 31 |  |  | 
10 | FC(F)(F)c1cccc(COC2CCN(Cc3ncc4ccccn34)CC2)c1 | 175 |  |  | 
11 | FC(F)(F)Oc1cccc(CO[C@H]2CCCN(Cc3ncc4ccccn34)C2)c1 | 55 |  |  | Activity [5]: 40%
12 | Cc1c(Cl)cccc1NC(=O)CN1CCC(OCc2cccc(C(F)(F)F)c2)CC1 | 358 |  |  | 
13 | Cc1nc(CN2CCC(OCc3cccc(C(F)(F)F)c3)CC2)c2ccccn12 | 35 |  |  | Ki (D(4) dopamine receptor; read-out: pKi (converted)): 302 nM
14 | Cc1csc(OC[C@@H]2CN(Cc3ccc4c(cnn4C)c3)CCO2)n1 | 1330 |  |  | Ki (D(4) dopamine receptor; read-out: Ki): 557 nM
15 | Fc1ccc(OC[C@@H]2CN(Cc3ccc4[nH]cnc4c3)CCO2)cc1F | 18 |  |  | 
16 | Cc1nc(CN2CCC(OCc3ccc(Cl)c(F)c3)CC2)c2ccccn12 | 12 |  |  | Fu [3]: 9%; Fu [4]: 8.3%
17 | COc1ccc(CN2CCC[C@@H](OCc3ccc(F)c(C)c3)C2)cc1F | 8.8 | 206 | > 10000 | Ki (D(4) dopamine receptor; read-out: Ki): 1050 nM; Fu [3]: 1%; Fu [4]: Not Determined(Unstable)
18 | COc1ccc(CN2CCC[C@H](OCc3ccccc3C)C2)cc1F | 8.7 |  |  | 
19 | Cc1cccc(CO[C@H]2CCCN(Cc3ncc4ccccn34)C2)n1 |  |  |  | Activity [6]: 15%; Activity [5]: 19%
20 | Cc1ccccc1CN1CCC[C@H](OCc2cccc(F)c2)C1 | 45 |  |  | Activity [5]: 29%
21 | Fc1ccc(OC[C@@H]2CN(Cc3cn4ccccc4n3)CCO2)cc1F | 1090 |  |  | Ki (D(4) dopamine receptor; read-out: Ki): 91 nM; Fu [3]: 14.3%; Fu [4]: 2.4%
22 | Fc1cc(COC2CCN(Cc3cc4ccc(Cl)cc4[nH]3)CC2)ccc1Cl | 29 |  |  | 
23 | Cc1ccc(CN2CCC[C@H](OCc3ccc(F)c(C)c3)C2)cc1 | 6.5 | 76 | > 10000 | 
24 | Cc1cc(NC(=O)CN2CCC3(CCCN(Cc4ccc(F)c(F)c4)C3)C2)ccc1F (stereo not drawn) | 11 | 45 | > 10000 | Ki (D(3) dopamine receptor): 376 nM; Fu [3]: Not Determined(Unstable); Fu [4]: 0.02%; Ki (D(1B) dopamine receptor): > 10000 nM; Activity [5]: 11%
25 | Cc1cccc(COC2CCN(Cc3cn4ccccc4n3)CC2)n1 | 180 |  |  | Ki (D(4) dopamine receptor; read-out: Ki): 320 nM
26 | Cc1c(Cl)cccc1NC(=O)CN1CCC2(CCCN2Cc2ccc(F)c(F)c2)CC1 | 83 | 121 | > 10000 | Activity [5]: 4%
27 | Cc1ccc(CO[C@H]2CCCN(Cc3cccc(F)c3)C2)cc1 | 19 | 574 | > 10000 | Fu [3]: 1.4%; Fu [4]: 0.3%; Activity [5]: 33%
28 | Cn1ncc2cc(CN3CCC(OCc4cccc(C(F)(F)F)c4)CC3)ccc21 | 1.7 |  |  | 
29 | Cn1ncc2cc(CN3CCC(OCc4ccc(F)c(F)c4)CC3)ccc21 | 1.8 | 10 | > 10000 | 

Reference: ChEMBL document CHEMBL5247621, “From dopamine 4 to sigma 1: Synthesis, SAR and biological characterization of a piperidine scaffold of σ1 modulators” (Eur J Med Chem, 2022)
